# Source: PubChem BioAssay AID1768 (National Center for Advancing Translational Sciences (NCATS), 2009)
# In all, about 270,000 compounds went through this assay and about 620 (0.23%) were called active. Inconclusive means that the source gave no clear call. Such entries were picked first, then a sample of the others. Calls follow the shape of the dose curve; as a rule, active = well fitted inhibition curve with a large enough effect in the polarisation, with a control signal flat (not every such curve was filed as active); inconclusive = small, poorly fitted or top-dose-only effect, or effect the other way, or a change in a side signal; inactive = no such curve, though single readings can be large or run the other way; the % refers to the polarisation. Potencies beside an inconclusive call are fits to weak or partial responses and may not hold up. “Side channel” marks fits to a control or component signal instead of the main read-out.
# Target: Menin (Homo sapiens) (UniProt O00255)
# Sequence of UniProt O00255 (O00255 whole entry, looked up): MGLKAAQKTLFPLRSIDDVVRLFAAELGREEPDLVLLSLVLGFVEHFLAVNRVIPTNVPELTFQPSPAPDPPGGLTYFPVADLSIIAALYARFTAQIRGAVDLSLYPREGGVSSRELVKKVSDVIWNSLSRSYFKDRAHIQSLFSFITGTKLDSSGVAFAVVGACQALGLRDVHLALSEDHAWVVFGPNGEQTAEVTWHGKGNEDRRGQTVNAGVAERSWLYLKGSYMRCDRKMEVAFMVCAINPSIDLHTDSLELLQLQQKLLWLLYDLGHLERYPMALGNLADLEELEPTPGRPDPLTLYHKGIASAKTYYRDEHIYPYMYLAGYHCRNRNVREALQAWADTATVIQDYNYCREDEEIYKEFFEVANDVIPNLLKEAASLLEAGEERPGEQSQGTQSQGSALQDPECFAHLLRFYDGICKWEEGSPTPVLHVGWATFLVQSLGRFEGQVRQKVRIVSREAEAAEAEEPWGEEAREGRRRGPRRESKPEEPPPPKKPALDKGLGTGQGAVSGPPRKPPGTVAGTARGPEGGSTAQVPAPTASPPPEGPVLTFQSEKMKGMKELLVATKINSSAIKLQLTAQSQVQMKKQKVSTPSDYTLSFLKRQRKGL
# Experiment: qHTS Assay for Inhibitors Targeting the Menin-MLL Interaction in MLL Related Leukemias: Competition With Texas Red Labeled MLL-derived Mutant Peptide
# Conditions: fluorescence polarization; series mostly up to 61.6 µM
# Potency is read from the fitted curve at half-maximal effect; tags tell the direction and shape of the fitted curve or compound fluorescence and quenching.
row,Structure (SMILES),Potency
1,O=C(CN(Cc1ccco1)C(=O)CNS(=O)(=O)c1ccc(Cl)cc1)NCc1ccco1,"inconclusive: 35.5 µM [quencher, side channel, single point]"
2,Nc1ccc(Nc2nc(-c3cccs3)cs2)cc1,"inconclusive: 28.2 µM [inhibitor, single point]"
3,CCOC(=O)c1[nH]c2ccc(OC)cc2c1NS(=O)(=O)c1ccc(OC)cc1OC,"inconclusive: 25.1 µM [quencher, side channel, single point]"
4,Cc1ccc(C)c(Nc2c(F)c(F)c(F)c(F)c2C(=O)O)c1,"inconclusive: 22.4 µM [quencher, side channel, single point]"
5,COC(CNC(=O)c1cccnc1)OC,"inconclusive: 5.62 µM [inhibitor, partial curve]"
6,COc1cccc(CN2CCC(Oc3ccc(C(=O)NCc4ccccn4)cc3)CC2)c1O,"inconclusive: 39.8 µM [inhibitor, single point]"
7,Cc1ccc(C(=O)NNC(=S)Nc2cccc(Cl)c2Cl)cc1[N+](=O)[O-],"inconclusive: 17.8 µM [quencher, side channel, partial curve]"
8,CC(C)OC(=O)CSc1nnc(-c2ccc(O)cc2)n1Cc1ccccc1,"inconclusive: 3.16 µM [inhibitor, full curve]"
9,Cc1ccc(NC(=O)c2cc(-c3ccccc3O)n[nH]2)cc1Cl,"inconclusive: 17.8 µM [fluorescent, side channel, partial curve]"
10,COc1cccc(/C=C2/SC(=S)N(CC(=O)NNC(=O)c3ccccc3O)C2=O)c1,"inconclusive: 31.6 µM [quencher, side channel, single point]"
11,COc1ccccc1NC(=O)Cn1cc(C(=O)C2CC2)c2ccccc21,"inconclusive: 39.8 µM [inhibitor, single point]"
12,Cc1nc(NCc2ccccn2)c2c3c(sc2n1)CCCC3,"inconclusive: 4.47 µM [fluorescent, side channel, full curve]"
13,CCCCNc1nc(Nc2ccc(C)c(Cl)c2)c2cnn(C)c2n1,"inconclusive: 28.2 µM [quencher, partial curve]"
14,CCn1nc(NC(=O)C(C)C)c2cc3ccc(C)cc3nc21,"inconclusive: 6.31 µM [inhibitor, full curve]"
15,N#Cc1c(NC(=O)CCCN2C(=O)c3ccccc3C2=O)oc(-c2ccccc2)c1-c1ccccc1,"inconclusive: 10 µM [inhibitor, partial curve]"
16,Cc1c(C(=O)N(C)C)sc(NC(=O)c2cc([N+](=O)[O-])cc([N+](=O)[O-])c2)c1C#N,"inconclusive: 31.6 µM [quencher, side channel, single point]"
17,COc1cc2nc(CN(C)CC(=O)Nc3ccc(N4CCOCC4)cc3)[nH]c(=O)c2cc1OC,"inconclusive: 3.16 µM [inhibitor, single point]"
18,O=C(Oc1ccc(/C=N/NC(=O)c2ccccc2F)cc1)c1ccccc1,"inconclusive: 22.4 µM [fluorescent, side channel, partial curve]"
19,CCOc1ccc(N2C(=O)CS/C2=C(\C(Cl)=C(Cl)Cl)[N+](=O)[O-])cc1,"inconclusive: 22.4 µM [quencher, side channel, partial curve]"
20,CC(/C=C1\SC(=S)N(CCCC(=O)Nc2ccc(C(=O)O)c(O)c2)C1=O)=C\c1ccccc1,"inconclusive: 7.08 µM [quencher, side channel, partial curve]"

row,Structure (SMILES),Potency
1,CCOC(=O)c1ccc(NC(=O)CCc2nc(-c3ccc(C)cc3)no2)cc1,"inconclusive: 11.2 µM [quencher, side channel, partial curve]"
2,CC(Nc1c[nH]c(=O)[nH]c1=O)c1ccccc1 (centres undefined),"inconclusive: 0.708 µM [inhibitor, full curve, poor fit]"
3,S=c1[nH]c(-c2ccccc2)cn1/N=C/c1ccc(Br)cc1,"inconclusive: 31.6 µM [quencher, side channel, single point]"
4,Cc1ccc(-n2nnnc2-c2cccc(C)c2)cc1,"inconclusive: 8.91 µM [inhibitor, single point]"
5,O=C(CSc1ccc(Cl)cc1)Nc1nnc(-c2cccc([N+](=O)[O-])c2)s1,"inconclusive: 25.1 µM [quencher, side channel, partial curve]"
6,CCOC(=O)CCNC(=O)Nc1cc2nc(C)n(Cc3cccc(Cl)c3)c2nc1C,"inconclusive: 35.5 µM [inhibitor, partial curve]"
7,Cc1cc(C(=O)OCC(=O)Nc2cc(S(=O)(=O)N(C)C)ccc2C)c2ccccc2n1,inactive
8,COc1cccc([C@@H]2Oc3ccc(Br)cc3C(=O)[C@H]2OC(=O)NS(=O)(=O)c2ccc(C)cc2)c1,inactive
9,O=C(Oc1c(Br)cc(C(=S)N2CCOCC2)cc1Br)c1ccc(Cl)cc1,"inconclusive: 22.4 µM [inhibitor, partial curve]"
10,O=C(COc1ccc(Br)cc1Cl)NC(=S)Nc1ccccn1,"inconclusive: 39.8 µM [fluorescent, side channel, single point]"
11,CC1=Nc2nc(N3CCCCC3)c(C#N)c3c4c(nc(c23)N1)N(c1ccc(C(C)C)cc1)C(=O)C4,"inconclusive: 14.1 µM [quencher, side channel, partial curve]"
12,NC(=O)c1ccc(NC(=O)COC(=O)CCC(=O)c2ccc(Cl)cc2)cc1,"inconclusive: 22.4 µM [fluorescent, side channel, single point]"
13,COc1ccc(C)cc1Nc1nc(-c2c[nH]c3ccccc23)cs1,"inconclusive: 31.6 µM [quencher, side channel, partial curve]"
14,Cc1cc(SCC(=O)NC(=O)NCc2ccco2)nc2ccccc12,"inconclusive: 31.6 µM [fluorescent, side channel, single point]"
15,COc1ccc(C(=O)NC(C)CCc2ccccc2)c(OC)c1 (centres undefined),"inconclusive: 8.91 µM [inhibitor, full curve]"
16,Cc1ccc(SCc2cc(=O)c3c(=O)n(-c4ccccc4)[nH]c3[nH]2)cc1,"inconclusive: 7.94 µM [quencher, side channel, partial curve]"
17,COc1ccc(CN(C)CC(=O)Nc2ccc(SC(F)F)cc2)cc1OC,inactive
18,CC1=C(C(=O)Nc2nc3ccccc3s2)C(c2ccco2)C(C#N)=C(SCC(=O)NC2CCCCC2)N1 (centres undefined),"inconclusive: 39.8 µM [inhibitor, single point]"
19,CC(C)(C)c1ccc(C(=O)C=[N+]=[N-])cc1,"inconclusive: 4.47 µM [inhibitor, partial curve]"
20,CC12CC3CC(C)(C1)CC(CN)(C3)C2,"inconclusive: 31.6 µM [inhibitor, single point]"

row,Structure (SMILES),Potency
1,CCCC1Nc2ccc(C(=O)O)cc2C2C=CCC12 (centres undefined),inactive
2,CC(Oc1ccc(F)cc1)C(=O)Nc1cccc(-c2nn[nH]n2)c1 (centres undefined),"inconclusive: 17.8 µM [quencher, side channel, single point]"
3,CCC1(CC)C(=O)C(C)(C)C(=O)OC1c1cccs1 (centres undefined),inactive
4,COc1cc2c(=O)n(CC3CCCO3)c(=O)n(CC(=O)Nc3cccc(Cl)c3)c2cc1OC (centres undefined),inactive
5,O=C(Cc1ccc(-n2cccc2)cc1)NCc1cccs1,"inconclusive: 31.6 µM [inhibitor, single point]"
6,COc1ccc(-n2ncc3c(Nc4cccc(C)c4)ncnc32)cc1,"inconclusive: 17.8 µM [quencher, side channel, partial curve]"
7,CCOc1cccc(/C=N/NS(=O)(=O)c2ccc(C)c([N+](=O)[O-])c2)c1O,"inconclusive: 11.2 µM [quencher, side channel, partial curve]"
8,CC(=O)N/C(=N/c1nc(C)cc(C)n1)Nc1cccc(C)c1C,"inconclusive: 15.8 µM [fluorescent, side channel, partial curve]"
9,O=C(NCC(=O)N(Cc1ccco1)C(C(=O)NC1CCCC1)c1ccncc1)c1cccs1 (centres undefined),inactive
10,Cc1ccc(N2C(=O)[C@@H]3C(c4ccc(F)cc4)=NO[C@@H]3C2=O)cc1,"inconclusive: 39.8 µM [quencher, side channel, single point]"
11,COc1cc(C(C[N+](=O)[O-])c2c(C)cc3ccccn23)ccc1O (centres undefined),"inconclusive: 20 µM [quencher, side channel, partial curve]"
12,COc1ccc(C(=O)Oc2cc(/C=N/NS(=O)(=O)c3ccc(C)cc3)ccc2OC)cc1,"inconclusive: 39.8 µM [inhibitor, single point]"
13,O=C(Cn1nnc2ccccc21)NCc1ccccc1,"inconclusive: 35.5 µM [inhibitor, single point]"
14,Cc1csc(NC(=O)CSc2nnc(NC(=O)COc3ccccc3)s2)n1,active: 39.8 µM
15,Cc1cc(C(=O)COc2ccccc2C(N)=O)c(C)n1C1CC1,inactive
16,Cc1ccccc1C(=O)Nc1cccc(NC(=O)c2ccc(-c3ccc(Br)cc3)o2)c1,"inconclusive: 39.8 µM [inhibitor, single point]"
17,Cc1cc(=O)oc2cc(NC(=O)[C@H](CCCCN)NC(=O)[C@H](CC3CCCCC3)NC(=O)OCC3c4ccccc4-c4ccccc43)ccc12,inactive
18,O=C(CCN1C(=O)/C(=C/c2cccs2)SC1=S)Nc1ccc(C(=O)O)cc1,"inconclusive: 25.1 µM [quencher, side channel, single point]"
19,CC1(C)CCC2=C(O1)c1ccccc1C(=O)C2=O,"inconclusive: 39.8 µM [fluorescent, side channel, single point]"
